From the supplement of paper PMC4604168 (melanoma cell lines)
The other results are listed elsewhere or left out. Repeats are few or missing, and single values can be far off.
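Further: cell number obtained by counting DAPI-stained nuclei in high-throughput microscope images with image analysis software, screen run in 1,536-well plates.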

The compounds below were run on G361 (assay: cell count relative to DMSO control; melanoma cells; higher = more viable cells). Conditions: library dose: low library concentration; 72 h.
`CN(c1ncccc1CNc1nc(Nc2ccc3c(c2)CC(=O)N3)ncc1C(F)(F)F)S(C)(=O)=O` + O=c1cc(-c2cccc3c2Sc2ccccc2S3)oc(N2CCOCC2)c1 [KU55933] (first compound 0.08 µM, partner dose 1 µM) gave a cell count of 89.9%.
`CN(c1ncccc1CNc1nc(Nc2ccc3c(c2)CC(=O)N3)ncc1C(F)(F)F)S(C)(=O)=O` + N#Cc1c(O)c2c(-c3ccc(-c4ccccc4O)cc3)csc2[nH]c1=O [A769662] (first compound 0.08 µM, partner dose 2 µM) gave a cell count of 103%.
`CCCS(=O)(=O)Nc1ccc(F)c(C(=O)c2c[nH]c3ncc(Cl)cc23)c1F` + Oc1cc(-c2nc(-c3ccccc3)[nH]c2-c2ccncc2)ccc1Cl [L779450] (first compound 0.08 µM, partner dose 0.2 µM) gave a cell count of 90.1%.
`NC1(c2ccc(-c3nc4ccn5c(=O)[nH]nc5c4cc3-c3ccccc3)cc2)CCC1` + O=C(O)C(=O)Nc1sc2c(c1C(=O)O)CCNC2 [TCS401] (first compound 0.4 µM, partner dose 1.66667 µM) gave a cell count of 95.4%.
In the case of `CN(c1ncccc1CNc1nc(Nc2ccc3c(c2)CC(=O)N3)ncc1C(F)(F)F)S(C)(=O)=O` + Cn1cc(/C=C2\C(=O)Nc3cccnc32)c2ccccc21 [GW441756] (first compound 0.08 µM, partner dose 0.4 µM), the cell count is reported as 85.4%.
For `CS(=O)(=O)c1ccc(C(=O)Nc2ccc(Cl)c(-c3ccccn3)c2)c(Cl)c1` [vismodegib] + COc1cc2ncnc(Nc3ccc(Oc4ccccc4)cc3)c2cc1OC [SrcI1] (first compound 1 µM, partner dose 2 µM), the cell count was 101%.
Work on `NC1(c2ccc(-c3nc4ccn5c(=O)[nH]nc5c4cc3-c3ccccc3)cc2)CCC1` + COc1ccc(-c2ccc3c(N4CCOCC4)nc(N4C[C@@H](C)O[C@@H](C)C4)nc3n2)cc1CO [KU0063794] (first compound 0.4 µM, partner dose 0.02 µM) yielded a cell count of 95.5%.
`CN(c1ncccc1CNc1nc(Nc2ccc3c(c2)CC(=O)N3)ncc1C(F)(F)F)S(C)(=O)=O` + O=C1NC(=O)/C(=C/c2ccc(-c3ccc(F)cc3O)o2)S1 [AS252424] (first compound 0.08 µM, partner dose 1 µM) was tested, and the cell count was 91.5%.
With `CS(=O)(=O)c1ccc(C(=O)Nc2ccc(Cl)c(-c3ccccn3)c2)c(Cl)c1` [vismodegib] + COc1ccc(COc2ccc(Cc3cnc(N)nc3N)cc2OC)cc1 [GW2580] (first compound 1 µM, partner dose 1 µM) the cell count was 115%.
`CS(=O)(=O)c1ccc(C(=O)Nc2ccc(Cl)c(-c3ccccn3)c2)c(Cl)c1` [vismodegib] + COc1ccc2c(c1)CCC1C2CCC2(C)C(NCCCCCCN3C(=O)C=CC3=O)CCC12 [U73122] (first compound 1 µM, partner dose 0.4 µM) showed a cell count of 98.8%.
Compound `NC1(c2ccc(-c3nc4ccn5c(=O)[nH]nc5c4cc3-c3ccccc3)cc2)CCC1` + Cn1cc(/C=C2\C(=O)Nc3cccnc32)c2ccccc21 [GW441756] (first compound 0.4 µM, partner dose 0.4 µM) has a cell count of 89.3%.
Compound `C=C(c1ccc(C(=O)O)cc1)c1cc2c(cc1C)C(C)(C)CCC2(C)C` [Bexarotene] + O=C(Nc1ccccc1)c1cc([N+](=O)[O-])ccc1Cl [GW9662] (first compound 2 µM, partner dose 2 µM) has a cell count of 87.1%.
Compound `NC1(c2ccc(-c3nc4ccn5c(=O)[nH]nc5c4cc3-c3ccccc3)cc2)CCC1` + COC(=O)c1sccc1S(=O)(=O)Nc1ccc(Nc2ccccc2)cc1OC [GSK0660] (first compound 0.4 µM, partner dose 1 µM) has a cell count of 97.4%.
`CCCS(=O)(=O)Nc1ccc(F)c(C(=O)c2c[nH]c3ncc(Cl)cc23)c1F` + O=C(O)C(=O)Nc1sc2c(c1C(=O)O)CCNC2 [TCS401] (first compound 0.08 µM, partner dose 1.66667 µM) showed a cell count of 91.4%.
For `CS(=O)(=O)c1ccc(C(=O)Nc2ccc(Cl)c(-c3ccccn3)c2)c(Cl)c1` [vismodegib] + O=C(O)C(=O)Nc1sc2c(c1C(=O)O)CCNC2 [TCS401] (first compound 1 µM, partner dose 1.66667 µM), the cell count was 104%.
In the case of `C=C(c1ccc(C(=O)O)cc1)c1cc2c(cc1C)C(C)(C)CCC2(C)C` [Bexarotene] + N#Cc1c(O)c2c(-c3ccc(-c4ccccc4O)cc3)csc2[nH]c1=O [A769662] (first compound 2 µM, partner dose 2 µM), the cell count is reported as 90%.
For `C=C(c1ccc(C(=O)O)cc1)c1cc2c(cc1C)C(C)(C)CCC2(C)C` [Bexarotene] + COc1ccc(-c2ccc3c(N4CCOCC4)nc(N4C[C@@H](C)O[C@@H](C)C4)nc3n2)cc1CO [KU0063794] (first compound 2 µM, partner dose 0.02 µM), the cell count was 69%.
For `CCCS(=O)(=O)Nc1ccc(F)c(C(=O)c2c[nH]c3ncc(Cl)cc23)c1F` + COc1ccc(COc2ccc(Cc3cnc(N)nc3N)cc2OC)cc1 [GW2580] (first compound 0.08 µM, partner dose 1 µM), the cell count was 84.8%.
